Over roughly 33,000 sequences, “E-score (dimensionless, -0.5 to 0.5)” has its median near -0.058; the highest 2% begin near 0.35. Some of the results follow.
Each sequence was assayed on MvaT (assay: PBM 8-mer E-score (mean of HK and ME arrays) (E-score (dimensionless, -0.5 to 0.5)); higher = stronger relative binding preference; most listed sequences are background and not binding sites).
How it was run: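 Full-length P. aeruginosa MvaT, with glutathione S-transferase fused to its N-terminus (cloned into pTH6838 by isothermal assembly), was tested by protein binding microarray using a previously described protocol. Two universal double-stranded 60-mer arrays (ME and HK) were used, each with a constant 25-mer primer region and a variable 35-mer region covering all 8-mers. The rank-based 8-mer E-score (-0.5 to 0.5) is the mean of the two arrays, parsed with a custom Python script.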

Sequence | PBM 8-mer E-score
AACTGGGC | -0.00796
AAGTAGGG | 0.129
CAACCTAC | -0.0561
AACATCCC | 2.53e-05
GGGACGCA | -0.117
AATTGACC | 0.0124
CGCACTAG | -0.119
CTATCCCC | -0.0545
CAGTATTA | 0.289
ACGAGAAT | -0.0739
AAACTGCA | 0.0716
CGCTCTAG | -0.234
CAGGACGA | -0.15
AGGTTCCC | -0.281
ACAGAATA | 0.151
GAATACAC | 0.0136
GCTGTTCA | -0.192
AGGTTACA | 0.103
GCAAGTGA | -0.158
TAGGACAA | 0.0864
GCCACCTA | -0.169
AATCCAAA | 0.11
CCCGTGGC | -0.26
AATTCACG | 0.156
CATGGGCA | -0.125

Sequence | PBM 8-mer E-score
GTGCAGCA | -0.0501
GTACCCCA | -0.136
CTACGTCC | -0.0884
ACAGGGCT | -0.196
GGGCTTAC | -0.2
AAGGTGTG | -0.0805
CCCCTCAA | -0.277
ACGTAGCC | -0.145
ATTTAAGA | 0.239
ACATTACC | 0.113
ATTAGCCA | 0.137
ACAGGAAA | 0.0933
ACCTCGAA | 0.00765
ACATGATA | 0.253
CCGGGGAC | -0.288
GTCTATCA | -0.0338
CCGAACTC | -0.0908
AGTGCAGG | -0.183
GGCTGTCA | -0.28
ACAGGGAG | -0.284
AGCGGAAA | -0.0159
ACTCTCAT | 0.165
CCATGTAA | 0.171
AGATACCA | -0.00766
TAAGGCAA | 0.2

Sequence | PBM 8-mer E-score
ATACCTTA | 0.217
AGTCATTG | 0.0326
CCACGGCA | -0.0512
TCAGGCCA | -0.254
AGTGTTAG | 0.0623
AGAGATTA | 0.102
CATAGGAG | 0.0253
ACTAACCA | 0.00276
GCGCCTAA | -0.067
ACCCGACG | -0.308
AAATCCTA | 0.0983
AGAACCGG | -0.0968
ACGCCTCC | -0.266
ATCCCCAG | -0.243
CACCGAAA | -0.0393
CTCACAGC | -0.0646
ACCAATTG | 0.18
ATCTGCGG | -0.304
ATCTGAAT | 0.181
CCCGGCGC | -0.295
CCGTTGCC | -0.127
AGGGGGAG | -0.246
AGCCGTTG | -0.178
ACTGAAGA | -0.0905
AAGATGTC | 0.0644

Sequence | PBM 8-mer E-score
AATCGTGT | 0.0667
AAGTTTGA | 0.289
CACGAGCC | -0.157
ACGTCCGA | -0.131
AGTCTTAC | 0.0995
AGCTTGCA | -0.201
AACTCGGA | -0.204
AGACGTCA | -0.0631
CTTTCCAA | -0.0652
AAGCACAT | 0.0617
CGTATTCC | 0.0945
GCAGACCC | -0.196
CATGGTGG | -0.18
GATCCGAC | -0.229
ACTCGGCT | -0.142
CGGCAGCC | -0.227
AATCTTAC | 0.084
AGTCCATA | -0.0417
CTTGCGGC | -0.183
CTCCAGGC | -0.291
ATGCGACA | 0.0362
ACACCCTC | -0.052
GGCCGGCC | -0.209
GCGAACGA | -0.161
CTTCTGCA | 0.0154

Sequence | PBM 8-mer E-score
AATCCCGG | -0.128
GGCAGCAA | -0.109
ACAATTTA | 0.353
GAATCTGA | -0.0293
TCACACAA | 0.054
AACGCACG | -0.152
TTAAAAAA | 0.305
GTAGCATA | 0.0752
GTAAGGAA | 0.00351
CGAGCGAG | -0.153
ATTATTCG | 0.378
ACCCCGTG | -0.237
CGTAATAC | 0.208
CCGCTGGA | -0.269
CAGGGGCA | -0.373
CTCCTTCA | -0.306
AGGGATAT | 0.0422
AGTTTGTG | 0.223
CTCATGAA | -0.0445
ATAAACAA | 0.327
AATTTGCA | 0.0865
GCGTAACA | 0.0692
GTCAAACA | 0.123
CCCATGGC | -0.275
GTCCCGTA | -0.123

Sequence | PBM 8-mer E-score
ATCCACGG | -0.105
CCGTATCC | -0.0843
CATGTGCC | -0.113
AATTTAAC | 0.31
CACACTAC | 0.197
CACGCTGG | -0.201
CAAGTACA | 0.18
CTGACTTC | -0.174
GGCCCCAC | -0.197
AAAGTTTC | 0.296
GAGTCGCA | -0.259
CAGGTGAG | -0.208
GGCAATGA | -0.0455
AACGGGCT | 0.0442
GGTGATTA | 0.0569
ACCCTCCA | -0.23
AATCGGCC | -0.0943
CCGATCCA | -0.176
AGCAACCG | -0.127
CATCAGGG | -0.209
CTAGTTAC | 0.212
AACTTGCG | 0.232
ATCAGACA | 0.0445
AGGTTGAC | -0.0422
AAGGATTA | 0.00301

Sequence | PBM 8-mer E-score
GTACATTA | 0.308
ATCCTCAT | -0.201
AGGCAGTC | -0.165
GGTCCGCA | -0.0756
ACCTGCAT | 0.0636
CTAATAAG | 0.213
CTCAATTA | 0.234
CGACACGA | -0.0857
AACGAAGC | -0.0882
CCTTCTCC | -0.268
CCAACGTC | -0.138
CGCATACC | -0.0906
AAGGCATG | -0.0865
AGGCGTAA | -0.205
AAACCTGT | -0.034
ACTAGCAT | -0.0487
ACATATTC | 0.281
CAGACGGA | -0.156
AGAAGCCT | -0.176
AGGCTGGC | -0.331
CGGTAGAG | -0.0757
CGGCCCGC | -0.294

Reference: the supplement of paper PMC4466236
